# Some of the results follow. Most values come without repeats; read them as rough.
# Test system: SkMel28
# Experiment: cell count relative to DMSO control; melanoma cells; higher = more viable cells
# Conditions: library dose: standard library concentration; 72 h
# 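Further: cells treated in 1,536-well plates, then fixed and DAPI-stained, with nuclei counted from automated high-throughput microscope images.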
row,Compound,cell count
1,"CCN(CC)CCNC(=O)c1c(C)[nH]c(/C=C2\C(=O)Nc3ccc(F)cc32)c1C [sunitinib] + CCCCCCCCCCCC1=C(O)C(=O)C=C(O)C1=O [Embelin] (first compound 2 µM, partner dose 6 µM)",55.5%
2,"C[C@]1(O)C[C@@H](c2nc(-c3ccc4ccc(-c5ccccc5)nc4c3)c3c(N)nccn32)C1 + O=C(Nc1ccccc1)c1cc([N+](=O)[O-])ccc1Cl [GW9662] (first compound 2 µM, partner dose 10 µM)",48.5%
3,"COc1cc([C@@H]2c3cc4c(cc3[C@@H](O[C@@H]3O[C@@H]5CO[C@@H](C)O[C@H]5[C@H](O)[C@H]3O)[C@H]3COC(=O)[C@H]23)OCO4)cc(OC)c1O [etoposide] + CCc1ccc(CCOc2ccc(CC3SC(=O)NC3=O)cc2)nc1 [pioglitazone] (first compound 0.1 µM, partner dose 10 µM)",65.5%
4,"C[C@]1(O)C[C@@H](c2nc(-c3ccc4ccc(-c5ccccc5)nc4c3)c3c(N)nccn32)C1 + O=c1cc(-c2cccc3c2Sc2ccccc2S3)oc(N2CCOCC2)c1 [KU55933] (first compound 2 µM, partner dose 5 µM)",52%
5,"C[C@]1(O)C[C@@H](c2nc(-c3ccc4ccc(-c5ccccc5)nc4c3)c3c(N)nccn32)C1 + O=C1NC(=O)/C(=C/c2ccc(-c3ccc(F)cc3O)o2)S1 [AS252424] (first compound 2 µM, partner dose 5 µM)",87.7%
